Test results published in publication PMC6919601, “Identification of Plasmodium dipeptidyl aminopeptidase allosteric inhibitors by high throughput screening” (PLoS ONE, 2019).
Among all 110,000 compounds or so, about 230 (0.21%) showed an effect of 50% or more. This is one part of the list.

molecular target: DPAP1 (Plasmodium falciparum, UniProt Q8IIJ9); experiment: primary screen, percent inhibition; read by cleavage of a fluorogenic dipeptide substrate; higher = more effect of the substance; design: species or system P. falciparum D10 trophozoite lysates; single well
Sequence (Q8IIJ9 whole entry, looked up): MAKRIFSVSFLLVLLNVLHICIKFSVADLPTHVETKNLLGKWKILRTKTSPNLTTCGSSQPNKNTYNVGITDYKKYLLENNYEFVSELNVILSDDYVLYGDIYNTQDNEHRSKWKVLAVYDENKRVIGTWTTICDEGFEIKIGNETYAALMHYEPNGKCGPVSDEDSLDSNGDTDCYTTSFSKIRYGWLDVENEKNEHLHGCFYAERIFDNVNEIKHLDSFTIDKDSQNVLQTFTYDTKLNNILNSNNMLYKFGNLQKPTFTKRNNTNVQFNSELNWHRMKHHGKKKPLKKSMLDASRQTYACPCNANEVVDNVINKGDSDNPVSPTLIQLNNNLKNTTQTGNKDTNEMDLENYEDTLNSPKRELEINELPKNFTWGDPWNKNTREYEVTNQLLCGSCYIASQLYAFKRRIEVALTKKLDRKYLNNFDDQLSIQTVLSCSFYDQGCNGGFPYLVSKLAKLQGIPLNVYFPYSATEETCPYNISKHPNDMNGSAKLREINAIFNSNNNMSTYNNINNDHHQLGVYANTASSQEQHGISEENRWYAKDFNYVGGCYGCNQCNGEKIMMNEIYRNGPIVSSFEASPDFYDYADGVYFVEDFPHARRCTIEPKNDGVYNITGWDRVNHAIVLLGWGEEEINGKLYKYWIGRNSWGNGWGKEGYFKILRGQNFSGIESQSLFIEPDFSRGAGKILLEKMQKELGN
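Also: 30 min substrate incubation versus DMSO and 10 µM JCP410 controls.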

Row | Compound | % Inhibition @ 10 uM
1 | Cc1ccccc1-n1c(S)nnc1-c1ccc(Cl)cc1Cl | 1%
2 | Oc1oc(-c2ccccc2)cc1/C=N/c1nc(-c2ccccc2)cs1 | 3.87%
3 | C=CCn1c(SCC(=O)NCC2CCCO2)nc2scc(-c3ccc(Cl)cc3)c2c1=O (stereo not drawn) | -2.77%
4 | Cc1ccc(-c2cc(O)c(O)nn2)cc1 | -6.22%
5 | CC1CCc2c(sc3ncn(CC(=O)O)c(=O)c23)C1 (stereo not drawn) | 5.39%
6 | C=CCNc1oc(/C=C/c2ccccc2OC)nc1C#N | 0.895%
7 | O=C(NC1CCN(Cc2ccccc2)CC1)c1ccc2c(c1)sc1nc(-c3ccc(F)cc3)cn12 | 10.9%
8 | CC(=O)N[C@@H](CCc1ccccc1)C(=O)N[C@@H](CC(C)C)C(=O)N[C@H](Cc1ccccc1)C(=O)N[C@@H](CC(C)C)C(=O)c1nc2ccccc2o1 | 1.42%
9 | Cc1ccc(/C=C/c2nn3c(-c4ccco4)nnc3s2)cc1 | 4.94%
10 | O=C(c1ccccc1Oc1nnnn1-c1ccccc1)N1CCCC1 | -1.37%
11 | Cc1cc(Br)ccc1NC(=O)CN1CC(c2ccccc2)CC1=O (stereo not drawn) | -1.36%
12 | Cc1oc(-c2ccccc2)nc1CS(=O)CC(=O)N1CCOCC1 (stereo not drawn) | -5.58%
13 | Cc1cc2nc(O)c(O)nc2cc1S(=O)(=O)NC1CCCC(C)C1C (stereo not drawn) | 1.77%
14 | O=C(NCc1cccnc1)c1cnn2c(C(F)(F)F)cc(-c3ccc4c(c3)OCO4)nc12 | 3.32%
15 | O=[N+]([O-])c1ccc(Cl)cc1CN1CC=C(c2ccc(F)cc2)CC1 | 2.1%
16 | CCN(CC)C(=O)c1cc(-c2ccc(C)s2)nc2ccccc12 | -2.03%
17 | Cc1c(C(=O)NCCN2CCOCC2)oc2ccc3c(c12)C(=O)CC1(CCCCC1)O3 | -6.58%
18 | CSC1=C(C#N)C(c2ccc(O)cc2)CC(=O)N1 (stereo not drawn) | 2.78%
19 | O=C(/C=C\Nc1cccc(F)c1)c1ccc2c(c1)OCO2 | 3.92%
20 | CC(C)CP(=O)(O)c1ccccc1 | 1.41%
21 | CC1=C(C#N)C(=O)N(C)C(=O)/C1=C\c1ccc(-c2ccc(Cl)c(C(=O)OCC(C)C)c2)o1 | 3.27%
22 | CCc1c2ccccc2nn1-c1ccccc1C(=O)C(C)=O | 2.55%
23 | O=S(=O)(NC1CCCCC1SC1=NCCS1)c1ccc(Cl)cc1 (stereo not drawn) | -3.64%
24 | COc1ccc(S(=O)(=O)N2CCC(C(=O)NCc3ccccc3Cl)CC2)cc1 | -3.45%
25 | COc1cc(C2CC(=O)NC(SCc3ccccc3)=C2C#N)ccc1O (stereo not drawn) | -3.12%
26 | O=C(COc1ccc(Cl)cc1)NCCCc1ccccc1 | -5.34%
27 | Cc1[nH]c2ccccc2c1Cc1nnc(SCc2ccccc2)o1 | 0.564%
